Results on 24 molecules are retold here after PubChem BioAssay AID463173 (ICCB-Longwood Screening Facility, Harvard Medical School, 2010).

Screen size: about 52,000 compounds; about 4,300 (8.3%) were called active. No stated cut-off is given here; in the data, active means survival mostly below about 52% (no sharp cut-off); inactive means mostly above about 56%. The list shows a part of the results.

The test system of the assay is DeltatarO mutant. The experiment in a line: S. aureus survival, RN4220 and DeltatarO strains – OD600, teichoic acid synthesis inhibitors, primary screen (AID 463173). The settings on record: S. aureus RN4220 wild type/DeltatarO growth, OD600, 18 h, stronger effect = lower value, screened at 18.75 µg/mL (by protocol).
For the molecule `CCOC(=O)c1cc2c(=O)n3ccccc3nc2n(Cc2ccco2)c1=NC(=O)c1ccccc1OC`, the survival is active: 28%. Next, `Cc1ccc(NC(=O)C2CCCN(c3nnc(C)c4c(C)n(-c5ccccc5)nc34)C2)cc1Cl` (centres undefined): inactive: 83%; `CC1CCCC(C)N1CCNC(=O)c1cn(C(C)c2ccccc2F)nn1` (centres undefined): inactive: 93%; `Cc1cc(C)cc(OCC(=O)Nc2cccc(-c3nc4ccccc4[nH]3)c2)c1`: active: 31%. Take `O=C(Cn1c(=O)n(-c2ccc(F)cc2)c(=O)c2sccc21)Nc1cccc(C(F)(F)F)c1`: the survival was inactive: 55%. For `COc1ccc(-n2nc3c(c2NC(=O)C(=O)N2CCN(C)CC2)CSC3)cc1`, the survival is inactive: 83%. The result for `CC(C)(C)C(=O)CNS(=O)(=O)c1ccc(S(=O)(=O)N2CCCC2)cc1` reads inactive: 80%. As to `Cc1ccc(-c2nnn(CC(=O)N(Cc3cccs3)C(C(=O)NCC3CCCO3)c3ccc(F)cc3)n2)o1` (centres undefined), the survival is inactive: 82%. Regarding `COc1cc(NC(=O)CSc2nc3nc(C)c(Cc4ccccc4)c(C)n3n2)cc(OC)c1`, the survival was inactive: 112%. Next, `CCOc1ccc2nc(N3CCCC(C(=O)NCCc4ccc(SC)cc4)C3)sc2c1` (centres undefined): inactive: 91%; `O=C(NCc1ccccc1)C1CCCN(C(=O)Nc2ccccc2)C1` (centres undefined): inactive: 102%. The result for `O=S(=O)(NC1=NCCS1)c1ccc(N=NN2CCCCC2)cc1` reads inactive: 75%; that for `CCN(c1ccc(C)cc1C)S(=O)(=O)c1nnc(NC(=O)CC(C)C)s1`, inactive: 75%; that for `Cc1ccc(CNC(=O)c2ccc3c(c2)N(Cc2cccc(Cl)c2)C(=O)CS3)cc1`, active: 40%. The result for `CCn1c(N2CCN(C(=O)Nc3ccc(Cl)c(C(F)(F)F)c3)CC2)nc2ccccc21` reads active: 0%. Regarding `Cc1cc(O)c(C(=O)c2cnc3c(c2)COc2ccccc2-3)cc1Cl`, the survival was inactive: 76%. With `CCOc1ccc(NC(=O)Cn2cc(C(=O)c3ccc(C)c(C)c3)c(=O)c3cc(F)ccc32)cc1`, the survival was inactive: 84%. As for `CCC1(C)Cc2ccccc2/C(=C/C(=O)N2CCCCC2)N1` (centres undefined), the survival was inactive: 104%. The result for `Cc1ccc(Cl)cc1NC(=O)Cn1c(=O)n(CCC(=O)N2CCc3ccccc3C2)c(=O)c2ccccc21` reads inactive: 102%; that for `CCOC(=O)c1cnn(-c2cccc(F)c2)c1C1CCNCC1`, inactive: 126%; that for `Cc1cccc(NC(=O)Cn2nc(N3CCN(c4ccccc4)CC3)ccc2=O)c1C`, inactive: 87%.

Take `CCOC(=O)c1c(C)sc(-c2c(-c3cc(C)ccc3C)[nH]c3c2c(=O)[nH]c(=O)n3C)c1O`: the survival was active: 40%. Next, `CCOc1ccc(CCNC(=O)Cn2nc(C)c3c(C)n(-c4ccccc4)nc3c2=O)cc1OCC`: active: 25%; `COc1cc(C(=O)Nc2ccc(-c3cc(C(F)(F)F)nn3-c3ccccc3)cc2)cc(OC)c1OC`: inactive: 66%.
